Laboratory results reported in patent publication US12643954B2, “Anti-CD36 antibodies and their use to treat cancer” (ONA Therapeutics, S.L., priority 2020, dated 2026).

Tests used:
[1] = molecular target: T1, mouse CD36 (Mus musculus, UniProt Q08857); experiment: ELISA binding to plate-coated mouse CD36; details: recombinant mouse CD36 coated plates
T1 construct: purchased Sino Biological 50422-M08H
Method: (§1) To perform ELISA assays, 96-well ELISA plates were coated over night with human CD36 (Sino Biological, reference 10752-H08H) or mouse CD36 (Sino Biological, reference 50422-M08H) recombinant proteins at a concentration of 0.25 mg/ml. After two washes with PBS, plates were blocked with 4% skimmed milk in PBS for 1 hour at 37° C. Blocking solution was discarded and plates were washed five times with 200 μl/well PBS-Tween20 (0.5%). Primary antibodies were either omitted (control blocking solution treatment) or mixed in blocking solution at several dilutions ranging from 0.01 nM to 0.5 μM. The primary antibody solutions were added to the wells and incubated over night at 4° C. After 5 washes with 200 ul/well of PBS-Tween20 (0.5%), plates were incubated for 1 hour at room temperature with a goat anti-mouse HRP-conjugated antibody (Abeam, reference ab97235) diluted 1:2000 in blocking solution. Plates were then washed 5 times with 200 μl/well of PBS-Tween20 (0.5%), incubated with 100 μl/well TMB and detected after 10 minutes, 30 minutes, or 60 minutes with a spectrophotometer at a wave length of 630 nm.

[2] = molecular target: T2, cells overexpressing human CD36 (Homo sapiens, UniProt P16671); experiment: FACS binding to cells overexpressing human CD36; details: serial dilution up to 100 nM
T2 construct: expressed in transfected cells
Method: For FACS analysis, cells were trypsinized, collected in a 15 mL tube and diluted in washing buffer (2% FBS in PBS). Cells were then centrifuged at 1500 rpm for 5 min at 4° C., supernatant was discarded, and cells were resuspended in fresh washing buffer. Anti-CD36 antibodies were either omitted (control wash buffer treatment) or serially diluted in washing buffer (dilution range up to 100 nM), and then added to the cells. Incubation was performed on ice for 1 hour. Cells were then centrifuged at 1500 rpm for 5 min at 4° C., supernatant was discarded, and cells were resuspended in fresh washing buffer. Finally, cells were incubated with a […] (BV421 Rat Anti-Mouse IgA, Becton Dickinson, reference 743293) diluted 1:100 in washing buffer, washed and analysed by FACS.

[3] = molecular target: CD36 (Homo sapiens, UniProt P16671); experiment: ELISA binding to plate-coated human CD36; set-up: purchased Sino Biological 10752-H08H; details: recombinant human CD36 coated plates
Method: as §1

T2 sequence (P16671 whole entry): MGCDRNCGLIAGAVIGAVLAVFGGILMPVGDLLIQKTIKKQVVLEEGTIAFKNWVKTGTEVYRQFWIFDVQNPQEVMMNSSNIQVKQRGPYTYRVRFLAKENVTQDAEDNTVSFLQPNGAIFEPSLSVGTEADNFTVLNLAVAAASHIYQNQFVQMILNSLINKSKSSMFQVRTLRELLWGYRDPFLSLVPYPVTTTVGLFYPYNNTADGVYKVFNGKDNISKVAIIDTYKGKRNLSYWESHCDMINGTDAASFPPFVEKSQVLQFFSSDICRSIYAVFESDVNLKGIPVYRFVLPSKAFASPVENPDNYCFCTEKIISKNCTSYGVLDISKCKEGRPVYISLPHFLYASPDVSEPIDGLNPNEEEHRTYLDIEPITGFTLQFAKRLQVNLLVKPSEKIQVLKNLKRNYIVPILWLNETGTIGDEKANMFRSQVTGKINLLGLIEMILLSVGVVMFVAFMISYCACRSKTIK
T1 sequence (Q08857 30-439 limits assumed): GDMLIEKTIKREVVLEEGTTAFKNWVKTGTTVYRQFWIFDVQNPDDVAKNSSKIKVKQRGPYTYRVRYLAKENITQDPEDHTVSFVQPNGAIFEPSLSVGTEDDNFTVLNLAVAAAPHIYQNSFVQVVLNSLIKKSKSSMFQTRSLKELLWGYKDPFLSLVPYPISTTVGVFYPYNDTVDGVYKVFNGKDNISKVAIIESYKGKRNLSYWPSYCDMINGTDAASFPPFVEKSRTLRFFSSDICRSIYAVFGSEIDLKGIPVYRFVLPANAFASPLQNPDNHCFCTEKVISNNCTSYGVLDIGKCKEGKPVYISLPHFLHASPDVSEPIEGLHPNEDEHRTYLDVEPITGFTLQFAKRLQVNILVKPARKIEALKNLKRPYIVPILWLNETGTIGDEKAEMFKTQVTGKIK

binding to mouse CD36 in ELISA [1]: but not
binding to cells overexpressing human CD36 (FACS) [2]: not observed to interact
binding to human CD36 in ELISA [3]: but not
B1: chimeric ONA-0-v2 IgG1 LALA: chimeric ONA-0-v2 IgG1 LALA antibody; heavy chain SEQ ID NO: 21, light chain SEQ ID NO: 25 (antibody)
heavy: QVQLKQSGADLVRPGASVKLSCKASGYTFTDYYINWVKQRPGQGLEWIARIYPGSGNTYYNEKFKGKATLTAEKSSSTAYMQLSSLTSEDSAVYFCARGIGGGFGMDYWGQGTSVTVSS[skipping human IgG1 constant region with changes]
light: NIVMTQSPKSMSMSVGERVTLTCKASENVVTYVSWYQQKPEQSPKLLIYGASNRYTGVPDRFTGSGSATDFTLTISSVQAEDLADYHCGQGYSYPYTFGGGTKLEIKRTVAAPSVFIFPPSDEQLKSGTASVVCLLNNFYPREAKVQWKVDNALQSGNSQESVTEQDSKDSTYSLSSTLTLSKADYEKHKVYACEVTHQGLSSPVTKSFNRGEC
modifications: 1G04 heavy chain; ONA-0-v2 ch IgG1 LALA light chain
